Results on 2 molecules are retold here after PMC3390797, “Regulation of ASIC channels by a stomatin/STOML3 complex located in a mobile vesicle pool in sensory neurons” (Open Biology, 2012).

The target in assay [1] is T1, STOML3Δ129–287 (Strep-tagged, CFP-tagged) (mouse) (UniProt Q6PE84).
T1 sequence: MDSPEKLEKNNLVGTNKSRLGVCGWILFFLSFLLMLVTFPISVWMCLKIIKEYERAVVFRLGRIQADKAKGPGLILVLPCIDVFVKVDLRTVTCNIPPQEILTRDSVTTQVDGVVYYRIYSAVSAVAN
The experiment in a line: co-IP; CHO cells transiently transfected with STOML3-Strep and ASICx-Flag or stomatin-Myc (1:1), 48 h; lysed in RIPA buffer (50 mM Tris pH 7.4, 300 mM NaCl, 1 mM EDTA, 0.5% deoxycholic acid, 0.5% Triton-X100, 0.1% SDS, 1 mM DTT); anti-Strep antibody and Protein G agarose overnight; blot with anti-Flag or anti-Myc.

For assay [2], the target named is T2, P40S STOML3 mutant protein (Strep-tagged, CFP-tagged) (mouse) (UniProt Q6PE84).
T2 sequence: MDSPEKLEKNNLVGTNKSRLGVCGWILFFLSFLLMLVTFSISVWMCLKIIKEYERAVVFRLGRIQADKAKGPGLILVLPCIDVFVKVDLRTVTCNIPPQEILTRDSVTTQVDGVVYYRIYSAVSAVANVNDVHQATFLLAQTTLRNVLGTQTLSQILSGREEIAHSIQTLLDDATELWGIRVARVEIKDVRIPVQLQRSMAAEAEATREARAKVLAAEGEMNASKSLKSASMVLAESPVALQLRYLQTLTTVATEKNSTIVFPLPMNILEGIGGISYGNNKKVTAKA
The assay is described as above.

Assay [3] concerns the target T3, STOML3-Δ1–128 (Strep-tagged, CFP-tagged) (mouse) (UniProt Q6PE84).
T3 sequence: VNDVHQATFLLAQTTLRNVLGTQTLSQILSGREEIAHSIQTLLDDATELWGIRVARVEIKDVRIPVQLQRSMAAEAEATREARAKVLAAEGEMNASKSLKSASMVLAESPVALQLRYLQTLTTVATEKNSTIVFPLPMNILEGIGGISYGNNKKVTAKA
The description is as above.

The target of assay [4] is T4, STOML3Δ1–50 (Strep-tagged, CFP-tagged) (mouse) (UniProt Q6PE84).
T4 sequence: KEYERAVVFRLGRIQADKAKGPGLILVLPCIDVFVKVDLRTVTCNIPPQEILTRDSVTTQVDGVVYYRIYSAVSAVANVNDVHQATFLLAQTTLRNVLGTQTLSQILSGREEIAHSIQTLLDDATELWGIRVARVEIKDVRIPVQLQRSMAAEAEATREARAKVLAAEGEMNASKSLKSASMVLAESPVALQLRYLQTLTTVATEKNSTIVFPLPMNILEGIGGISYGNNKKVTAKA
The assay is described as above.

Assay [5] deals with T5, Strep-tagged STOML3-AmCyan1 (stomatin-like protein-3, wild type) (mouse) (UniProt Q6PE84).
T5 sequence: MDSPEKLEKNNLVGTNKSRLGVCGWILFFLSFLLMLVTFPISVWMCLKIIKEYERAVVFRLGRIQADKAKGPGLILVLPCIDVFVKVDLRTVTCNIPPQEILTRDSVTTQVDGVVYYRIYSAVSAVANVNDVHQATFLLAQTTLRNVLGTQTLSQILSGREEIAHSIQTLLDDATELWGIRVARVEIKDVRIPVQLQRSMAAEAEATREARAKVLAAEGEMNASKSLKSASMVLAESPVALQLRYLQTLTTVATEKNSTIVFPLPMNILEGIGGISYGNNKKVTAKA
The description is as above.

Assay [6] addresses T1, STOML3Δ129–287 (Strep-tagged, CFP-tagged) (mouse). Kind of assay: FRET or BRET; three-cube FRET imaging of CHO cells co-expressing the AmCyan1 (CFP) and EYFP fusions; apparent FRET efficiency, calibrated with two fluorophore-tandem constructs. A general note: Bioluminescence resonance energy transfer reports proximity on the nanometre scale.
Assay [7] deals with T2, P40S STOML3 mutant protein (Strep-tagged, CFP-tagged) (mouse). The description is as above.
For assay [8], the target named is T3, STOML3-Δ1–128 (Strep-tagged, CFP-tagged) (mouse). The description is as above.
The target of assay [9] is T4, STOML3Δ1–50 (Strep-tagged, CFP-tagged) (mouse). Described as above.

No constants are given. Whether binding was seen depends on the method and setting. Binding seen in cells or lysates may run through a third protein. Some binding calls cover weakened binding; strength is not graded here. Where a sequence is shown, tags or fusion partners need not be part of it.

B1: stomatin-Myc (protein, UniProt P54116 1-284)
chain: MSDKRQSSHVQSQRIPESFRENSKTELGACGWILVAASFFFVIITFPISIWICIKIVKEYERVIIFRLGRILQGGAKGPGLFFILPCTDSLIKVDMRTISFDIPPQEVLTKDSVTISVDGVVYYRVQNATLAVANITNADSATRLLAQTTLRNALGTKNLSQILSDREEIAHHMQSTLDDATDDWGIKVERVEIKDVKLPVQLQRAMAAEAEAAREARAKVIAAEGEMNASRALKEASMVITESPAALQLRYLQTLTTIAAEKNSTIVFPLPVDMLQGIMGSNH
Turning to B1, the binding entry in [1] is listed as “no binding”; in assay [2], “no binding”; in assay [3] it was “no binding”; in [4], “no binding”; in assay [5], “binds”.

B2: EYFP-stomatin (protein, UniProt P54116 1-284)
chain: MSDKRQSSHVQSQRIPESFRENSKTELGACGWILVAASFFFVIITFPISIWICIKIVKEYERVIIFRLGRILQGGAKGPGLFFILPCTDSLIKVDMRTISFDIPPQEVLTKDSVTISVDGVVYYRVQNATLAVANITNADSATRLLAQTTLRNALGTKNLSQILSDREEIAHHMQSTLDDATDDWGIKVERVEIKDVKLPVQLQRAMAAEAEAAREARAKVIAAEGEMNASRALKEASMVITESPAALQLRYLQTLTTIAAEKNSTIVFPLPVDMLQGIMGSNH
In the case of B2, the binding result in assay [6], in assay [7], in [8] and in assay [9] was “no binding” in each case.
